Reference: patent publication US10322110B2, “Imidazole-based antimicrobial agents” (priority 2014, dated 2019)

Tests used:
[1] = tested on: Staphylococcus aureus MRSA (COL); test: broth microdilution MIC assay, Staphylococcus aureus MRSA (COL); format: cell-based; settings: MIC100 class score, 24 h
[2] = tested on: Human keratinocytes (HaCaT cells); test: human cytotoxicity assay in vitro (CellTiter-Glo), keratinocytes; format: cell-based; set-up: key: 4: compounds inhibiting cell viability 50% or more at concentrations of 5 μM or less; 3: compounds causing more than 50% inhibition of cell viability at 10 μM; compounds causing >50% inhibition of cell viability at 25 μM; 1: compounds causing less than 50% inhibition of cell viability at 50 μM; compounds not causing loss of cell viability at concentrations of 50 μM or higher; settings: cytotoxicity class
[3] = tested on: Staphylococcus aureus MSSA (Newman); test: broth microdilution MIC assay, Staphylococcus aureus MSSA (Newman); format: cell-based; settings: MIC100 class score, 24 h
[4] = tested on: Streptococcus pneumoniae (Chester, ATCC49619); test: broth microdilution MIC assay, Streptococcus pneumoniae; format: cell-based; settings: MIC100 class score, 24 h
[5] = tested on: Human hepatocytes (HepaRG cells); test: human cytotoxicity assay in vitro (CellTiter-Glo), hepatocytes; format: cell-based; settings: cytotoxicity class
[6] = tested on: Mycobacterium smegmatis (mc(2)155, ATCC700084); test: broth microdilution MIC assay, Mycobacterium smegmatis; settings: MIC activity class

## Cc1[nH]c(-c2cc(C)n(-c3ccc(Cl)cc3)c2C)nc1-c1ccccc1 [Compound 8]
[1]
  Antibacterial activity Staphylococcus aureus (MRSA): 1 (MIC100 of 20-50 μg/ml or an MIC50 of <10 μg/ml)
[2]
  cytotoxicity cell line K (keratinocytes): 1

## Cc1[nH]c(-c2cc(C)n(-c3ccc(F)cc3F)c2C)nc1-c1ccccc1 [Compound 9]
[1]
  Antibacterial activity Staphylococcus aureus (MRSA): 1 (MIC100 of 20-50 μg/ml or an MIC50 of <10 μg/ml)
[2]
  cytotoxicity cell line K (keratinocytes): 2

## Cc1nc(-c2ccc(-c3ccc(Cl)cc3Cl)o2)[nH]c1-c1ccc(F)cc1 [Compound 16]
[3]
  Antibacterial activity Staphylococcus aureus (MSSA): 4 (MIC of ≥1 μg/ml to 3 μg/ml for preventing staphylococcal growth 100% (MIC100))
[2]
  cytotoxicity cell line K (keratinocytes): 1

## Cc1nc(-c2ccc(-c3ccccc3OC(F)(F)F)o2)[nH]c1-c1ccccc1Cl [Compound 19]
[1]
  Antibacterial activity Staphylococcus aureus (MRSA): 1 (MIC100 of 20-50 μg/ml or an MIC50 of <10 μg/ml)
[4]
  Antibacterial activity Streptococcus pneumoniae: 4 (MIC of 1 μg/ml or less for preventing streptococcal growth 100% (MIC100))
[3]
  Antibacterial activity Staphylococcus aureus (MSSA): 1 (MIC100 of 20-50 μg/ml or an MIC50 of <10 μg/ml)
[2]
  cytotoxicity cell line K (keratinocytes): 0 (compounds not causing loss of cell viability at concentrations of 50 μM or higher)

## Cc1nc(-c2ccc(-c3ccccc3C(F)(F)F)o2)[nH]c1-c1ccccc1Cl [Compound 20]
[4]
  Antibacterial activity Streptococcus pneumoniae: 4 (MIC of 1 μg/ml or less for preventing streptococcal growth 100% (MIC100))
[3]
  Antibacterial activity Staphylococcus aureus (MSSA): 1 (MIC100 of 20-50 μg/ml or an MIC50 of <10 μg/ml)
[2]
  cytotoxicity cell line K (keratinocytes): 0 (compounds not causing loss of cell viability at concentrations of 50 μM or higher)

## Cc1[nH]c(-c2ccc(-c3ccccc3OC(F)(F)F)o2)nc1-c1ccc(F)cc1 [Compound 23, 4-(4-Fluoro-phenyl)-5-methyl-2-[5-(2-trifluoromethoxy-phenyl)-furan-2-yl]-1H-imidazole]
[1]
  Antibacterial activity Staphylococcus aureus (MRSA): 4 (MIC of ≥1 μg/ml to 3 μg/ml for preventing staphylococcal growth 100% (MIC100))
[4]
  Antibacterial activity Streptococcus pneumoniae: 4 (MIC of 1 μg/ml or less for preventing streptococcal growth 100% (MIC100))
[2]
  cytotoxicity cell line K (keratinocytes): 2

## C#Cc1ccc(-c2nc(-c3ccc(-c4ccccc4C(F)(F)F)o3)[nH]c2C)cc1 [Compound 27]
[5]
  cytotoxicity cell line H (hepatocytes): 1 (compounds not causing a loss of viability at concentrations between 25 and 50 μM)
[4]
  Antibacterial activity Streptococcus pneumoniae: 4 (MIC of 1 μg/ml or less for preventing streptococcal growth 100% (MIC100))
[2]
  cytotoxicity cell line K (keratinocytes): 2

## CCc1ccc(-c2[nH]c(-c3ccc(-c4ccccc4C(F)(F)F)o3)nc2C)cc1 [Compound 28]
[5]
  cytotoxicity cell line H (hepatocytes): 1 (compounds not causing a loss of viability at concentrations between 25 and 50 μM)
[3]
  Antibacterial activity Staphylococcus aureus (MSSA): 1 (MIC100 of 20-50 μg/ml or an MIC50 of <10 μg/ml)
[2]
  cytotoxicity cell line K (keratinocytes): 0 (compounds not causing loss of cell viability at concentrations of 50 μM or higher)

## Cc1[nH]c(-c2ccn(-c3ccccc3C(F)(F)F)c2)nc1-c1ccccc1 [Compound 33]
[1]
  Antibacterial activity Staphylococcus aureus (MRSA): 1 (MIC100 of 20-50 μg/ml or an MIC50 of <10 μg/ml)
[2]
  cytotoxicity cell line K (keratinocytes): 3

## Cc1[nH]c(-c2ccc(-c3cccc(C(F)(F)F)c3)o2)nc1-c1ccc(F)cc1 [Compound 38]
[5]
  cytotoxicity cell line H (hepatocytes): 1 (compounds not causing a loss of viability at concentrations between 25 and 50 μM)
[3]
  Antibacterial activity Staphylococcus aureus (MSSA): 4 (MIC of ≥1 μg/ml to 3 μg/ml for preventing staphylococcal growth 100% (MIC100))
[2]
  cytotoxicity cell line K (keratinocytes): 2

## Cc1nc(-c2ccc(-c3ccc(Cl)c(OC(F)(F)F)c3)o2)[nH]c1-c1ccccc1 [Compound 41]
[6]
  Antibacterial activity MS (Mycobacterium smegmatis): 1 (MIC100 of 20-50 μg/ml or an MIC50 of <10 μg/ml)
[2]
  cytotoxicity cell line K (keratinocytes): 2

## Cc1[nH]c(-c2ccc(-c3ccc(C(F)(F)F)cc3)o2)nc1-c1ccccc1 [Compound 45]
[5]
  cytotoxicity cell line H (hepatocytes): 1 (compounds not causing a loss of viability at concentrations between 25 and 50 μM)
[2]
  cytotoxicity cell line K (keratinocytes): 1

## Cc1[nH]c(-c2ccc(-c3ccc(C(F)(F)F)cc3)o2)nc1-c1ccc(Cl)cc1 [Compound 47]
[5]
  cytotoxicity cell line H (hepatocytes): 1 (compounds not causing a loss of viability at concentrations between 25 and 50 μM)
[4]
  Antibacterial activity Streptococcus pneumoniae: 4 (MIC of 1 μg/ml or less for preventing streptococcal growth 100% (MIC100))
[3]
  Antibacterial activity Staphylococcus aureus (MSSA): 4 (MIC of ≥1 μg/ml to 3 μg/ml for preventing staphylococcal growth 100% (MIC100))
[2]
  cytotoxicity cell line K (keratinocytes): 2

## Cc1[nH]c(-c2ccc(-c3ccc(OC(F)(F)F)c(Cl)c3)o2)nc1-c1ccc(Cl)cc1 [Compound 50]
[5]
  cytotoxicity cell line H (hepatocytes): 1 (compounds not causing a loss of viability at concentrations between 25 and 50 μM)
[2]
  cytotoxicity cell line K (keratinocytes): 1

## Cc1[nH]c(-c2ccc(-c3ccc(OC(F)(F)F)cc3Cl)o2)nc1-c1ccc(F)cc1 [Compound 51]
[1]
  Antibacterial activity Staphylococcus aureus (MRSA): 1 (MIC100 of 20-50 μg/ml or an MIC50 of <10 μg/ml)
[2]
  cytotoxicity cell line K (keratinocytes): 3

## Cc1ccc(-c2ccc(-c3nc(-c4ccccc4)c(C)[nH]3)s2)cc1 [Compound 54]
[5]
  cytotoxicity cell line H (hepatocytes): 1 (compounds not causing a loss of viability at concentrations between 25 and 50 μM)
[2]
  cytotoxicity cell line K (keratinocytes): 1

## Cc1ccc(-c2nc(-c3nc(-c4ccccc4)c(C)[nH]3)cs2)cc1 [Compound 56]
[5]
  cytotoxicity cell line H (hepatocytes): 1 (compounds not causing a loss of viability at concentrations between 25 and 50 μM)
[2]
  cytotoxicity cell line K (keratinocytes): 3

## Cc1ccc(-c2nc(-c3nc(-c4ccccc4)c(C)[nH]3)co2)cc1 [Compound 57]
[5]
  cytotoxicity cell line H (hepatocytes): 1 (compounds not causing a loss of viability at concentrations between 25 and 50 μM)
[2]
  cytotoxicity cell line K (keratinocytes): 3

## Cc1[nH]c(-c2ccc(-c3ccccc3)s2)nc1-c1ccccc1 [Compound 74]
[5]
  cytotoxicity cell line H (hepatocytes): 1 (compounds not causing a loss of viability at concentrations between 25 and 50 μM)
[2]
  cytotoxicity cell line K (keratinocytes): 3

## Cc1[nH]c(-c2ccc(-c3ccccc3OC(F)(F)F)o2)nc1-c1ccc(O)cc1 [Compound 76]
[1]
  Antibacterial activity Staphylococcus aureus (MRSA): 4 (MIC of ≥1 μg/ml to 3 μg/ml for preventing staphylococcal growth 100% (MIC100))

## FC(F)(F)c1ccccc1-c1ccc(-c2nc3c([nH]2)CCCC3)o1 [Compound 87]
[1]
  Antibacterial activity Staphylococcus aureus (MRSA): 4 (MIC of ≥1 μg/ml to 3 μg/ml for preventing staphylococcal growth 100% (MIC100))
[4]
  Antibacterial activity Streptococcus pneumoniae: 4 (MIC of 1 μg/ml or less for preventing streptococcal growth 100% (MIC100))

## FC(F)(F)Oc1ccccc1-c1ccc(-c2nc3c([nH]2)CCCC3)o1 [Compound 88]
[1]
  Antibacterial activity Staphylococcus aureus (MRSA): 4 (MIC of ≥1 μg/ml to 3 μg/ml for preventing staphylococcal growth 100% (MIC100))
[4]
  Antibacterial activity Streptococcus pneumoniae: 4 (MIC of 1 μg/ml or less for preventing streptococcal growth 100% (MIC100))

## CCCc1[nH]c(-c2ccc(-c3ccccc3OC(F)(F)F)o2)nc1C [Compound 89]
[1]
  Antibacterial activity Staphylococcus aureus (MRSA): 4 (MIC of ≥1 μg/ml to 3 μg/ml for preventing staphylococcal growth 100% (MIC100))
[4]
  Antibacterial activity Streptococcus pneumoniae: 4 (MIC of 1 μg/ml or less for preventing streptococcal growth 100% (MIC100))

## CCCCc1nc(-c2ccc(-c3ccccc3C(F)(F)F)o2)[nH]c1C [Compound 90]
[1]
  Antibacterial activity Staphylococcus aureus (MRSA): 4 (MIC of ≥1 μg/ml to 3 μg/ml for preventing staphylococcal growth 100% (MIC100))

## CCCCc1[nH]c(-c2ccc(-c3ccccc3OC(F)(F)F)o2)nc1C [Compound 91]
[1]
  Antibacterial activity Staphylococcus aureus (MRSA): 4 (MIC of ≥1 μg/ml to 3 μg/ml for preventing staphylococcal growth 100% (MIC100))
[4]
  Antibacterial activity Streptococcus pneumoniae: 4 (MIC of 1 μg/ml or less for preventing streptococcal growth 100% (MIC100))

## Cc1nc(-c2ccc(-c3ccccc3C(F)(F)F)o2)[nH]c1CC(C)C [Compound 92]
[1]
  Antibacterial activity Staphylococcus aureus (MRSA): 4 (MIC of ≥1 μg/ml to 3 μg/ml for preventing staphylococcal growth 100% (MIC100))
[4]
  Antibacterial activity Streptococcus pneumoniae: 4 (MIC of 1 μg/ml or less for preventing streptococcal growth 100% (MIC100))

## CCCc1[nH]c(-c2ccc(-c3ccccc3Cl)o2)nc1C [Compound 95]
[1]
  Antibacterial activity Staphylococcus aureus (MRSA): 4 (MIC of ≥1 μg/ml to 3 μg/ml for preventing staphylococcal growth 100% (MIC100))
[4]
  Antibacterial activity Streptococcus pneumoniae: 4 (MIC of 1 μg/ml or less for preventing streptococcal growth 100% (MIC100))

## CCCc1[nH]c(-c2ccc(-c3ccccc3Br)o2)nc1C [Compound 96]
[1]
  Antibacterial activity Staphylococcus aureus (MRSA): 4 (MIC of ≥1 μg/ml to 3 μg/ml for preventing staphylococcal growth 100% (MIC100))
[4]
  Antibacterial activity Streptococcus pneumoniae: 4 (MIC of 1 μg/ml or less for preventing streptococcal growth 100% (MIC100))

## CCCc1nc(-c2ccc(-c3cccc(C(F)(F)F)c3)o2)[nH]c1C [Compound 99]
[1]
  Antibacterial activity Staphylococcus aureus (MRSA): 4 (MIC of ≥1 μg/ml to 3 μg/ml for preventing staphylococcal growth 100% (MIC100))
[4]
  Antibacterial activity Streptococcus pneumoniae: 4 (MIC of 1 μg/ml or less for preventing streptococcal growth 100% (MIC100))

## CCCc1[nH]c(-c2ccc(-c3ccccc3C(F)(F)F)o2)nc1C [Compound 101]
[1]
  Antibacterial activity Staphylococcus aureus (MRSA): 4 (MIC of ≥1 μg/ml to 3 μg/ml for preventing staphylococcal growth 100% (MIC100))

## CCCc1[nH]c(-c2ccc(-c3cc4ccccc4o3)o2)nc1C [Compound 106]
[1]
  Antibacterial activity Staphylococcus aureus (MRSA): 4 (MIC of ≥1 μg/ml to 3 μg/ml for preventing staphylococcal growth 100% (MIC100))
[4]
  Antibacterial activity Streptococcus pneumoniae: 4 (MIC of 1 μg/ml or less for preventing streptococcal growth 100% (MIC100))

## CCCc1[nH]c(-c2ccc(-c3ccc(N4CCN(C)CC4)cc3)o2)nc1C [Compound 107]
[1]
  Antibacterial activity Staphylococcus aureus (MRSA): 1 (MIC100 of 20-50 μg/ml or an MIC50 of <10 μg/ml)

## Cc1nc(-c2cc(C)n(-c3ccccc3F)c2C)[nH]c1-c1ccccc1 [Compound 119]
[1]
  Antibacterial activity Staphylococcus aureus (MRSA): 1 (MIC100 of 20-50 μg/ml or an MIC50 of <10 μg/ml)
